Assay results published in patent publication US20210070868A1 (published 2021).

Assays:
[1] = target: T1, wild-type decoyMET (extracellular portion of human HGFR/MET: SEMA, PSI, IPT-1 to IPT-4) (UniProt P08581 25-932); test: ELISA
T1 chain: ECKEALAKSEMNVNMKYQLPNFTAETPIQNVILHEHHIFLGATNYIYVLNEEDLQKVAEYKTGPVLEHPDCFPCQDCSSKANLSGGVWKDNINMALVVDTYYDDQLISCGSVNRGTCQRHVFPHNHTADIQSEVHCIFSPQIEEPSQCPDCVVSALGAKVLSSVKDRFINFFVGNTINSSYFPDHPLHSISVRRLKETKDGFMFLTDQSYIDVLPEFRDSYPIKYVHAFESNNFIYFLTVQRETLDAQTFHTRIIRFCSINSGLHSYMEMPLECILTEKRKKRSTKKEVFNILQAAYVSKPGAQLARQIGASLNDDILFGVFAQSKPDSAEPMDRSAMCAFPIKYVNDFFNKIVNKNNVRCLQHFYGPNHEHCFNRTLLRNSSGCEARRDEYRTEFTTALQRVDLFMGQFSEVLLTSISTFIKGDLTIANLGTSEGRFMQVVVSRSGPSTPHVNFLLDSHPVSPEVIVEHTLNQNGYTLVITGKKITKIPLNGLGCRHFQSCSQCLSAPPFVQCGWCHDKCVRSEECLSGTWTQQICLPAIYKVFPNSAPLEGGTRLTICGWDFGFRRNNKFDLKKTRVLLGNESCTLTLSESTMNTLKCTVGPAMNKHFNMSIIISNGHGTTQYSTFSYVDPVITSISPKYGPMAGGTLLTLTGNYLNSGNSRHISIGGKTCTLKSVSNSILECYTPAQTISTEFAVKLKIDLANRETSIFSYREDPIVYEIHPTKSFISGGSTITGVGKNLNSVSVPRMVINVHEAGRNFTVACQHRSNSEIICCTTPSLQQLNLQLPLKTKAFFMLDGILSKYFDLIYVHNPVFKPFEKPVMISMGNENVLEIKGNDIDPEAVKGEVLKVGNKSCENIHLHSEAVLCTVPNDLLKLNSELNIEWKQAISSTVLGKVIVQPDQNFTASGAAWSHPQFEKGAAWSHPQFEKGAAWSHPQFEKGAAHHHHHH

[2] = target: Hepatocyte Growth Factor (HGF) (UniProt P14210 32-728); test: ELISA
UniProt P14210, sequence (P14210 32-728): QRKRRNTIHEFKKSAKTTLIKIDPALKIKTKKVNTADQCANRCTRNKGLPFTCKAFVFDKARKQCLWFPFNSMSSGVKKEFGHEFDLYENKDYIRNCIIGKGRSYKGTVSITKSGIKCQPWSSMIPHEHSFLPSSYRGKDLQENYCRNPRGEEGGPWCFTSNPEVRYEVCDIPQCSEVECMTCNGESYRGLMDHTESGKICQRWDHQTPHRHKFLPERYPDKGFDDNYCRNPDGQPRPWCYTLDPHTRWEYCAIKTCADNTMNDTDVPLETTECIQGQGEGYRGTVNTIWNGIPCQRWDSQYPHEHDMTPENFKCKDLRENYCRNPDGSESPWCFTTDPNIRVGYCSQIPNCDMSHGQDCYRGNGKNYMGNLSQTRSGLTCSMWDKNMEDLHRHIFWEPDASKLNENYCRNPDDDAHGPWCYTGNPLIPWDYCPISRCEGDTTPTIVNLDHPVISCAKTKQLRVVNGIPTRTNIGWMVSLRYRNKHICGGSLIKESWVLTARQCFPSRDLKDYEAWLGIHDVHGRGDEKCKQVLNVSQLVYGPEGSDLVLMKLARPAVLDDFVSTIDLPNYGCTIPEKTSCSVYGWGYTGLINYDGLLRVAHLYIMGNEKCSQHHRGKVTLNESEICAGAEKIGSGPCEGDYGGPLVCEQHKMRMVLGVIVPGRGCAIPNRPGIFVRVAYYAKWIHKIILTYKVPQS

B1: fusion protein with scMvDN30 at the N-terminal, linker L60 and decoyMET^K842E at the C-terminal (other)
chain: DIVLTQSPASLAVSLGQRATISCKASQSVDYDGGSYMSWFQQRPGQPPKLLISAASNLESGIPARFSGSGSGTDFTLNIHPVEEEDVATYYCQQSYEDPLTFGAGTKVEIKRTVAAPSVFIFPPSDEQLKSGTASVVCLLNNFYPREAKVQWKVDNALQSGNSQESVTEQDSKDSTYSLSSTLTLSKADYEKHKVYACEVTHQGLSSPVTKSFNRGECGGSSGSGSGSTGTSSSGTGTSAGTTGTSASTSGSGSGGGGGSGGGGSAGGTATAGASSGSVQLQQPGTELVKPGASVKLSCKASGYTFTSYWIHWVKQRPGQGLEWIGEINPSSGRTNYNEKFKNKVTVTVDKSSTTAYMQLSNLTSEDSAVYYCASRGYWGQGTTLTVSSASTKGPSVFPLAPSSKSTSGGTAALGCLVKDYFPEPVTVSWNSGALTSGVHTFPAVLQSSGLYSLSSVVTVPSSSLGTQTYICNVNHKPSNTKVDKKVEPKSCDKTHTGGSSGSGSGSTGTSSSGTGTSAGTTGTSASTSGSGSGGGGGSGGGGSAGGTATAGASSGSECKEALAKSEMNVNMKYQLPNFTAETPIQNVILHEHHIFLGATNYIYVLNEEDLQKVAEYKTGPVLEHPDCFPCQDCSSKANLSGGVWKDNINMALVVDTYYDDQLISCGSVNRGTCQRHVFPHNHTADIQSEVHCIFSPQIEEPSQCPDCVVSALGAKVLSSVKDRFINFFVGNTINSSYFPDHPLHSISVRRLKETKDGFMFLTDQSYIDVLPEFRDSYPIKYVHAFESNNFIYFLTVQRETLDAQTFHTRIIRFCSINSGLHSYMEMPLECILTEKRKKRSTKKEVFNILQAAYVSKPGAQLARQIGASLNDDILFGVFAQSKPDSAEPMDRSAMCAFPIKYVNDFFNKIVNKNNVRCLQHFYGPNHEHCFNRTLLRNSSGCEARRDEYRTEFTTALQRVDLFMGQFSEVLLTSISTFIKGDLTIANLGTSEGRFMQVVVSRSGPSTPHVNFLLDSHPVSPEVIVEHTLNQNGYTLVITGKKITKIPLNGLGCRHFQSCSQCLSAPPFVQCGWCHDKCVRSEECLSGTWTQQICLPAIYKVFPNSAPLEGGTRLTICGWDFGFRRNNKFDLKKTRVLLGNESCTLTLSESTMNTLKCTVGPAMNKHFNMSIIISNGHGTTQYSTFSYVDPVITSISPKYGPMAGGTLLTLTGNYLNSGNSRHISIGGKTCTLKSVSNSILECYTPAQTISTEFAVKLKIDLANRETSIFSYREDPIVYEIHPTKSFISGGSTITGVGKNLNSVSVPRMVINVHEAGRNFTVACQHRSNSEIICCTTPSLQQLNLQLPLKTKAFFMLDGILSKYFDLIYVHNPVFEPFEKPVMISMGNENVLEIKGNDIDPEAVKGEVLKVGNKSCENIHLHSEAVLCTVPNDLLKLNSELNIEWKQAISSTVLGKVIVQPDQNFTASGAAWSHPQFEKGAAWSHPQFEKGAAWSHPQFEKGAAHHHHHH
- Kd [1]: 8.44 nM
- Kd [2]: 0.262 nM
